# Source: PubChem BioAssay AID488969 (Vanderbilt High Throughput Screening Facility, 2010)
# Over roughly 110,000 compounds, “z-score” has its median near -0.1; the highest 2% begin near 2. The list shows a part of the results.
# Target: Metabotropic glutamate receptor 8 (Rattus norvegicus) (UniProt P70579)
# Test: rat mGluR8 modulators via GIRK flux, primary screen, cell-based, thallium flux, HTS (AID 488969)
# Conditions: HEK293 rat mGluR8, GIRK (G protein-gated inwardly rectifying potassium channel) thallium flux, FluoZin2; at 10 µM; stronger effect = higher value; submaximal glutamate (EC20) added with thallium
# Chain of UniProt P70579 (P70579 whole entry, looked up): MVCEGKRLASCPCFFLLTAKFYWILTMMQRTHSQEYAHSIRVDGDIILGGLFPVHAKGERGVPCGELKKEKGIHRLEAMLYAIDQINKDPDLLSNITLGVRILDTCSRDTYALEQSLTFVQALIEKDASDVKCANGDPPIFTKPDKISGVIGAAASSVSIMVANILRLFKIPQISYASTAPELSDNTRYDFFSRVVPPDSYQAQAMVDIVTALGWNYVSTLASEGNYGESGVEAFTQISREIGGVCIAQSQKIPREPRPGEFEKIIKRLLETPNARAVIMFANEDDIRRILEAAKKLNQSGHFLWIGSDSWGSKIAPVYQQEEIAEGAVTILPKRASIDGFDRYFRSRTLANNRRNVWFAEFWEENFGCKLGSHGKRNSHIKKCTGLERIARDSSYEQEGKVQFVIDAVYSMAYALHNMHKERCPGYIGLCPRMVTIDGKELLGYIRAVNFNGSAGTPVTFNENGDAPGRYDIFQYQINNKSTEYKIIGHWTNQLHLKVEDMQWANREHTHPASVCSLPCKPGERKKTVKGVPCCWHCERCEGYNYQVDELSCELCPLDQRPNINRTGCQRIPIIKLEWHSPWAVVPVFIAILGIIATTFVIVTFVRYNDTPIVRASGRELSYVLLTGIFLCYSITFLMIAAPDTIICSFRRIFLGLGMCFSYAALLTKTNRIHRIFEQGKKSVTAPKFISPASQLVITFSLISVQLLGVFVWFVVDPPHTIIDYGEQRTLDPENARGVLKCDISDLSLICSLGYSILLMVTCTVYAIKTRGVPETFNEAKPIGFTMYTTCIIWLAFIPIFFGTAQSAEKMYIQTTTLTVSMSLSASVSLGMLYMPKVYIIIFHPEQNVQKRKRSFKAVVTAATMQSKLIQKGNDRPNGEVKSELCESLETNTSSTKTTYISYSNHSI
row,SMILES,z-score
1,COc1ccc2c(c1)-c1c(sn(-c3ccc(OC)c(OC)c3)c1=S)C(C)(C)N2,-0.354
2,Cc1ccc(NC(=O)c2cc(N3C(=O)C=CC3=O)ccc2N2CCOCC2)cc1Cl,-0.485
3,CCSc1nc2ccccc2n1CC(=O)OC,0.0654
4,CC(C)C(OC(=O)c1cccs1)C(=O)NCc1ccco1 (stereo not given),0.681
5,C=CCOC(=O)COc1ccc2c(C)c(C)c(=O)oc2c1C,-0.629
6,Cc1cc(C)nc(NN=C2CCCC2)n1,0.417
7,COc1ccccc1C(=O)NCC(=O)OCC(=O)c1ccc2c(c1)-c1ccccc1C2,0.242
8,Nc1cc(-c2cccc([N+](=O)[O-])c2)[nH]n1,0.124
9,O=C(CSc1ncn[nH]1)c1ccc2c(c1)OCCO2,-0.487
10,CC(=O)N1CCN(c2ccc(NC(=O)c3ccc(C(C)(C)C)cc3)cc2)CC1,-0.142
11,Cc1ccc(C(=O)Nc2cccc([N+](=O)[O-])c2)cc1S(=O)(=O)Nc1ccc(NC(=O)c2ccccc2)cc1,-0.0252
12,Cc1ccc(S(=O)(=O)N2CCCC2C(=O)OCC(=O)Nc2ccc3c(c2)OCO3)cc1 (stereo not given),-0.265
13,Cn1c(N)c(C(=O)c2ccc(Cl)cc2)c(=O)n(C)c1=O,0.632
14,CCN(C(=O)COC(=O)c1cc(NS(=O)(=O)c2ccc(Cl)c([N+](=O)[O-])c2)ccc1O)C1CCCCC1,2
15,COC(=O)c1ccc(SCC(=O)NC2CCCC2)c([N+](=O)[O-])c1,0.103
16,Cc1nc2ccccc2cc1OCc1ccccc1,-0.299
17,CS(=O)(=O)N1CCCC(C(=O)NCc2ccccc2Cl)C1 (stereo not given),0.223
18,O=C(Cn1cnc2cc(Cl)ccc2c1=O)Nc1ccc2c(c1)OCO2,-0.115
19,O=C(CCCOc1ccccc1)N1CCCCC1,-0.959
20,COc1ccc(OC)c(NC(=O)CSc2nnc(N)s2)c1,-0.287
21,CC1CN(C2CCN(C(=O)COc3ccccc3)CC2)CC(C)O1 (stereo not given),0.629
22,O=C1CCCCCN1CSc1nc2ccccc2s1,0.104
23,O=S(=O)(NCCOc1ccc(F)cc1)c1ccc2c(c1)OCCO2,-0.332
24,COC(=O)c1ccc(S(=O)(=O)NCc2cccc(OC)c2)n1C,-0.366
25,CCN1CCCC1CNS(=O)(=O)c1ccc(C(=O)Nc2ccccc2)cc1 (stereo not given),0.276
26,Cc1ccc2cc(C)c3nnc(SCC(=O)Nc4nc5c(s4)CCCC5)n3c2c1C,-0.125
27,CC(C)C1(C)C(=O)N=C2c3ccccc3C(=O)N21 (stereo not given),-0.22
28,Cc1cc(C)cc(N(C(=O)Cn2nnc(-c3ccccc3)n2)C(C(=O)NC2CCCCC2)c2ccccn2)c1 (stereo not given),-0.269
29,COC(=O)CSc1nc2ccc(NC(=O)c3ccccc3C(=O)N3CCOCC3)cc2s1,-0.331
30,CC(C/C=N/NC(=O)COc1cc(Cl)ccc1Cl)c1ccccc1 (stereo not given),-0.0205
